Data from publication PMC12040169 (PLOS Biology, 2025).
The other results are listed elsewhere or left out.

Test system: T1, C. trachomatis L2/434/Bu expressing GFP (CTL2-GFP)
T1 construct: L2/434/Bu GFP intracellular growth in HeLa cells
Parameters: species or system HeLa; C. trachomatis total inclusion area by high-content imaging, normalised to DMSO
Conditions: total inclusion area; 28.5 h, 10 µM; inhibitor
Method in brief: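 Following bulk GFP and resorufin fluorescence reads, infected cells were fixed, Hoechst-stained and imaged on a high-content platform. Inclusion total area and number per well served as growth proxies; nuclei counts indicated host viability. MICs were derived as for the fluorescence assay.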

Row | Compound | % of control remaining
1 | O=S(=O)(c1ccc(-c2ccccc2)cc1)N1CCCN(Cc2ccc(F)c(C(F)(F)F)c2)CC1 [CBK063115] | 48.0258
2 | Cc1c(CN(Cc2ccccc2)CC2CCCO2)cnn1C (centres unmarked) [CBK283263] | 90.8478
3 | CCC(C)(CC(=O)O)CC(=O)N1CCC2(CC1)OCCc1c2[nH]c2ccccc12 (centres unmarked) [CBK047051] | 103.762
4 | COCCn1c(SC(C)C(=O)N2CCNC2=O)nc2ccccc21 (centres unmarked) [CBK305832] | 87.0805
5 | Oc1ccc(-c2n[nH]c(C(F)(F)F)c2Oc2ccc(F)cc2)c(O)c1 [CBK264440] | 90.1259
6 | COc1ccc(-c2nc(=S)c3c(n2CCCN(C)C)CC(C)(C)OC3)cc1 [CBK267844] | 115.678
7 | Cc1nccn1CCC(=O)NC(c1ccncc1)c1cccs1 (centres unmarked) [CBK281440] | 102.025
8 | COc1cccc(CNCC2CCCO2)c1OCc1ccccc1 (centres unmarked) [CBK269798C] | 64.7624
9 | CCCC/C=C/c1cc(NCCC)n2nccc2n1 [CBK037127] | 55.4593
10 | OCC1CCC(O)C(CO)N1 (centres unmarked) [CBK022827C] | 73.6975
11 | O=C(O)c1cccc(NC(=O)c2cc(-n3cnnc3)ccc2Cl)c1 [CBK268026] | 107.926
12 | C[S+]([O-])CCn1c2ccccc2c2c(N3CCCC3)nc(N3CCCC3)nc21 (centres unmarked) [CBK017586] | 110.635
13 | O=C(Cn1cccc(C(=O)NC2CCCCC2)c1=O)Nc1nc2c(s1)CCCCC2 [CBK286056] | 104.381
14 | Cc1ccn2cc(CNC(=O)CCC(C)N3CCN(C)CC3)nc2c1 (centres unmarked) [CBK306628] | 75.9576
15 | O=C(CSc1nnc(Cc2ccccc2)n1-c1ccc(Cl)cc1)Nc1cc(Cl)ccc1O [CBK269061] | 98.997
16 | Cc1cc2c(s1)c1cnn(Cc3ccncc3)c(=O)c1n2C [CBK284188] | 72.1552
17 | CCn1c(CN2CCC(n3nc(C)cc3C)CC2)nc2ccccc21 [CBK281615] | 80.6192
18 | CS(=O)(=O)Nc1ccc2cc(-c3ccsc3)cnc2n1 [CBK085665] | 98.3355
19 | CC(=O)N1CCN(CC[C@@H]2CC[C@H](O)[C@@H](C(=O)N(C)Cc3ccccc3)O2)CC1 [CBK288716] | 101.697
20 | COCc1nnc(Sc2nccc(C(F)(F)F)n2)s1 [CBK093790] | 81.8809
21 | CC(C)Nc1nccnc1-c1ccc(CO)cc1 [CBK088519] | 72.4317
22 | CC(C)N(Cc1cccnc1)C(=O)Cn1c(C2CC2)nc2ccccc21 [CBK306156] | 92.6189
23 | c1ccc2nc(N3CCCC3)c(Sc3nccs3)nc2c1 [CBK093794] | 84.0685
24 | COCCOC1CN(Cc2cn(-c3ccc(Br)cc3)nc2C(C)C)C1 [CBK304852] | 87.4677
25 | OCn1nc(-c2ccc(Cl)cc2Cl)oc1=S [CBK288410] | 50.3988
26 | CCCN1CCC(CNC(=O)Cn2ccc3ccc(F)cc32)CC1 [CBK282573] | 97.1512
27 | CCc1nn(CC(=O)N2CCCCC2)c(=O)c2cc3oc(C)cc3n12 [CBK283575] | 55.9775

Row | Compound | % of control remaining
28 | CN(C)CC1CCCCN1C(=O)[C@@H]1C[C@@H]2C=C[C@H]1C2 (some centres unmarked) [CBK282086] | 129.282
29 | CCOc1ccccc1CNCc1ccccn1 [CBK268041C] | 100.825
30 | Cc1ccc(C)c(OCCNCc2ccco2)c1Cl [CBK269718C] | 81.6304
31 | Cn1c(CCC(=O)Nc2c[nH]c3ccccc23)nc2ccccc21 [CBK282507] | 87.2219
32 | COc1ccc2[nH]c3c(c2c1)CCNC31CCN(CCC2CCCCC2)C1 (centres unmarked) [CBK040111T] | 83.1661
33 | Oc1c2c(nn1Cc1ccccc1)CCCC2 [CBK089898] | 99.1427
34 | COc1cc(CNC(=O)N2CCN(C3CCN(C)CC3)CC2)cc(OC)c1OC [CBK155893] | 91.1529
35 | CCOc1ccc(Cl)cc1S(=O)(=O)NCCO [CBK269996] | 101.031
36 | Nc1nccnc1C(=O)N1CCN(C(=O)Cc2c[nH]c3ccccc23)CC1 [CBK298339] | 95.4562
37 | COc1ccc(Cl)cc1NC(=O)C(=O)NCC1CCCO1 (centres unmarked) [CBK263823] | 138.043
38 | O=C(O)c1cc(NC(=O)c2cccc(N3C(=O)c4ccccc4C3=O)c2)cc(C(=O)O)c1 [CBK263338] | 94.6768
39 | COCCN1C(=O)CN(Cc2ccccc2)C1=O [CBK162369] | 45.6178
40 | COc1cc(/C=C2\SC(=N)NC2=O)cc(Cl)c1OS(=O)(=O)c1ccc(NC(C)=O)cc1 [CBK264502] | 100.875
41 | Cc1cccc(Nc2nccc(-n3ccc(C)n3)n2)c1 [CBK288616] | 80.1638
42 | COc1ccc(-c2cc3cccn(CC(=O)N(C)C)c-3n2)cc1 [CBK285382] | 74.6847
43 | CC(C)C(NC(=O)CN1CSCC1=O)c1ccc(C(C)(C)C)cc1 (centres unmarked) [CBK297899] | 85.1004
44 | COc1cc(CN2CCN(C(=O)c3cccnc3)CC2)cc(OC)c1O [CBK265210G] | 74.7532
45 | CN1CCN(c2nccnc2-c2cccnc2)CC1 [CBK036612] | 109.24
46 | O=C1CC(N2CCN(C3CC(=O)N(Cc4ccccc4)C3=O)CC2)C(=O)N1Cc1ccccc1 (centres unmarked) [CBK269198] | 113.687
47 | O=C(O)C(=C/C=C/Br)C(=O)O [CBK260906] | 100.902
48 | NC(=O)[C@H]1C[C@@H](O)[C@H](O)[C@H]2[C@@H]1S/C(=N\c1ccc(Cl)cc1)N2Cc1ccccc1 [CBK288940] | 65.2287
49 | O=C(CN1C(=O)N2CCN=C2c2ccccc21)NC1CCCC1 [CBK283959] | 65.3184
50 | Cc1ccc(C2CCCN2C(=O)C(C)Cn2cncn2)cc1C (centres unmarked) [CBK282213] | 86.2176
51 | CCOC(=O)CSc1nc2ccc(I)cc2c(=O)n1Cc1ccccc1 [CBK266602] | 105.775
52 | O=C(c1cccnc1)C1CCN(C(=O)Cc2cccc(F)c2)CC1 [CBK283506] | 92.2508
53 | c1ccc2sc(-c3cc(Nc4ccc5[nH]ccc5c4)ncn3)cc2c1 [CBK090858] | 133.959
54 | COc1ccc(-c2cc(C(=O)N/N=C/c3c(C)[nH]c4ccccc34)[nH]n2)cc1 [CBK262884] | 6.288

Row | Compound | % of control remaining
55 | COCCn1c(SCC(=O)N2CCCc3ccccc32)nc(O)cc1=O [CBK304191] | 38.7753
56 | Cc1cccc(-n2nc3c4nonc4ccc3[n+]2[O-])c1C [CBK264626] | 115.422
57 | O=C(c1c(NS(=O)(=O)c2ccc3ccccc3c2)sc2c1CCCC2)N1CCOCC1 [CBK028636] | 82.9161
58 | Cc1n[nH]c(O)c1C(c1ccc(OC(=O)c2ccccc2)cc1)c1c(C)n[nH]c1O [CBK265019] | 102.3
59 | COc1cccc(CC(=O)NCc2ccccc2OC2CCNC2)c1 (centres unmarked) [CBK024487T] | 98.2605
60 | O=c1sn(-c2ccccc2C(F)(F)F)c(=O)n1CC1CC1 [CBK113675] | 99.7402
61 | COc1ccc([N+](=O)[O-])cc1NC(=O)N[C@@H]1CC[C@@]2(c3ccc(OC)c(OC)c3)CCN(C)[C@H]2C1 [CBK036449T] | 82.4642
62 | OCc1ccc(-n2ncc(-c3ccc(F)cc3F)n2)cc1 [CBK112731] | 97.3092
63 | Cc1nn(C)c(S(=O)(=O)N2CCOCC2c2cccc(F)c2)c1C(F)F (centres unmarked) [CBK304729] | 86.0273
64 | CC(Oc1ccc(Cl)cc1Cl)C(=O)N1CCN(Cc2ccc3c(c2)OCO3)CC1 (centres unmarked) [CBK074438] | 97.8144
65 | Cc1nn(C)c2ncc(S(=O)(=O)Nc3ccc(F)cn3)cc12 [CBK305175] | 89.6429
66 | O=C(CCCOc1ccccc1)Nc1cccnc1N1CCNCC1 [CBK028258T] | 87.7237
67 | Cc1nn(C)c(Oc2ccc3c(c2)CCCC3)c1[N+](=O)[O-] [CBK000273] | 77.3866
68 | CN(C)S(=O)(=O)c1ccc(C(=O)Nc2ccc3ncn(C)c(=O)c3c2)cc1 [CBK268450] | 86.2031
69 | COc1ccc(-c2noc(CN(C)C(=O)c3cccs3)n2)cc1 [CBK270286] | 85.3949
70 | O=C(Cn1cnc(NCc2cscn2)n1)N1CCCCCC1 [CBK304061] | 29.0097
71 | O=C(C[C@@H]1O[C@H](CNS(=O)(=O)c2ccc(Cl)cc2)[C@@H](O)[C@H]1O)N1CCCC1 [CBK288911] | 61.3934
72 | O=C(CC1CCCCO1)Nc1cccc(Cn2ccnc2)c1 (centres unmarked) [CBK282204] | 87.8494
73 | COc1cc(OC)cc(C(=O)Nc2cccc(-c3nc4ccccc4o3)c2)c1 [CBK097706] | 113.328
74 | Cn1c(=O)oc2cc(Br)ccc21 [CBK027375] | 64.2779
75 | O=C(c1ccco1)N1CCN(S(=O)(=O)c2ccc3c(c2)C(=NO)c2cc(S(=O)(=O)N4CCN(C(=O)c5ccco5)CC4)ccc2-3)CC1 [CBK262103] | 101.117
76 | Cc1[nH]c(=O)[nH]c(=S)c1C(=O)Nc1ccc(C(F)(F)F)cc1 [CBK115510] | 94.0873
77 | CCn1nc2c3ccccc3nc(C3CC3)n2c1=O [CBK284008] | 69.8138
78 | O=C(Nc1ccc(Br)cc1)C1CC(O)CN1C(=O)OCc1ccccc1 (centres unmarked) [CBK263233] | 90.4427
79 | OCC1CCCN1c1cncc(-c2cccnc2)n1 (centres unmarked) [CBK065439] | 118.129
80 | O=C1NC2=C(C(=O)N(CC3CCCO3)C2)C(c2ccc(F)c(F)c2)N1 (centres unmarked) [CBK282271] | 98.4977
